Data reported in PMC12724269.
No constants are given. Whether binding was seen depends on the method and setting. In cells and extracts the contact can be indirect. Some entries that bind do so weakly or less than the wild type. Sequences can lack the tags named with a protein. Values belong to the binder of their own block, whether it stands above or below them.

Key:
Experiment in all cases: co-IP; ANKLE2-3XFLAG complexes immunoprecipitated from lysates of doxycycline-treated transduced HeLa cells on Dynabead Protein G beads conjugated to mouse anti-FLAG, overnight at 4°C; lysis buffer 50 mM Tris-HCl pH 7.4, 150 mM NaCl, 1% Triton X-100, protease and phosphatase inhibitors, nuclease; blots for PP2A and total BAF
[1] = target: T1, Δ2-117-ANKLE2-3XFLAG (human) (UniProt Q86XL3)
T1 sequence: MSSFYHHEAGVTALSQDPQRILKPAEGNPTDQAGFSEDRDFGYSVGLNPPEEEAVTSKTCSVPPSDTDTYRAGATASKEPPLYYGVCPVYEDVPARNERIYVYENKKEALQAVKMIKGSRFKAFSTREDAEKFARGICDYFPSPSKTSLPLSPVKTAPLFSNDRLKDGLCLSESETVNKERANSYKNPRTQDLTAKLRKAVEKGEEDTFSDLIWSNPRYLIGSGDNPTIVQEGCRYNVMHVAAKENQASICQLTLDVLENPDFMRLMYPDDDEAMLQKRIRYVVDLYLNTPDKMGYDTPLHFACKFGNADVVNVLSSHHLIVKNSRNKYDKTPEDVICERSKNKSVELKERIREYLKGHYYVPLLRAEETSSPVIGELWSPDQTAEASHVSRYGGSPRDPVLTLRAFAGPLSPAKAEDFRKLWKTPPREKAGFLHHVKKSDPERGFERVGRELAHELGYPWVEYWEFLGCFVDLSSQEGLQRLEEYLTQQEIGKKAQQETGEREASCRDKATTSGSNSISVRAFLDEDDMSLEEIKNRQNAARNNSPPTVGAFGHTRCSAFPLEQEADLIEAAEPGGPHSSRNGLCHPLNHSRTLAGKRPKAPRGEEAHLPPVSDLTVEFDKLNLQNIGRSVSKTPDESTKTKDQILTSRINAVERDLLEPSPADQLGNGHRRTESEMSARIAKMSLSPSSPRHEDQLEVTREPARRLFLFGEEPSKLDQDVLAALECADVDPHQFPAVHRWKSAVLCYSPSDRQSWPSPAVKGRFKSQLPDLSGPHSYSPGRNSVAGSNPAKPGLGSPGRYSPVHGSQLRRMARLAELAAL

[2] = target: T2, Δ2-252-ANKLE2-3XFLAG (human) (UniProt Q86XL3)
T2 sequence: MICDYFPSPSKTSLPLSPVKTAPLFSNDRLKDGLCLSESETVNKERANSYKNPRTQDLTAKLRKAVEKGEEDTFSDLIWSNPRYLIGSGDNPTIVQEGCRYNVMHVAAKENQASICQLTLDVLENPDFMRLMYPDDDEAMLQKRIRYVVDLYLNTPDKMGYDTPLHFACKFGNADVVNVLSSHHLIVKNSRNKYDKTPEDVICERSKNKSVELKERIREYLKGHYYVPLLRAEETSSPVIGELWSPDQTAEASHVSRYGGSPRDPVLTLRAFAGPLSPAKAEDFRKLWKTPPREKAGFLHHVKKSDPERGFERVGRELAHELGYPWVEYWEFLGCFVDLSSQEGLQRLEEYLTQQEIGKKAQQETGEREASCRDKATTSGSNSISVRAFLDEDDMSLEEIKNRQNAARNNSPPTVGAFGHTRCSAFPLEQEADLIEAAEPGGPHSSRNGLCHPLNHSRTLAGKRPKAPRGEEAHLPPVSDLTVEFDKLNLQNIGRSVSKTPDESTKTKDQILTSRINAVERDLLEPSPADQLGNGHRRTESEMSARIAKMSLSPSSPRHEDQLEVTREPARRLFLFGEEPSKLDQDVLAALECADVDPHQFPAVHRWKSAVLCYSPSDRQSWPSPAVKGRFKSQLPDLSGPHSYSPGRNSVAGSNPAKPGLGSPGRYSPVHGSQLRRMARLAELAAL

[3] = target: T3, Δ2-53-ANKLE2-3XFLAG (human) (UniProt Q86XL3)
T3 sequence: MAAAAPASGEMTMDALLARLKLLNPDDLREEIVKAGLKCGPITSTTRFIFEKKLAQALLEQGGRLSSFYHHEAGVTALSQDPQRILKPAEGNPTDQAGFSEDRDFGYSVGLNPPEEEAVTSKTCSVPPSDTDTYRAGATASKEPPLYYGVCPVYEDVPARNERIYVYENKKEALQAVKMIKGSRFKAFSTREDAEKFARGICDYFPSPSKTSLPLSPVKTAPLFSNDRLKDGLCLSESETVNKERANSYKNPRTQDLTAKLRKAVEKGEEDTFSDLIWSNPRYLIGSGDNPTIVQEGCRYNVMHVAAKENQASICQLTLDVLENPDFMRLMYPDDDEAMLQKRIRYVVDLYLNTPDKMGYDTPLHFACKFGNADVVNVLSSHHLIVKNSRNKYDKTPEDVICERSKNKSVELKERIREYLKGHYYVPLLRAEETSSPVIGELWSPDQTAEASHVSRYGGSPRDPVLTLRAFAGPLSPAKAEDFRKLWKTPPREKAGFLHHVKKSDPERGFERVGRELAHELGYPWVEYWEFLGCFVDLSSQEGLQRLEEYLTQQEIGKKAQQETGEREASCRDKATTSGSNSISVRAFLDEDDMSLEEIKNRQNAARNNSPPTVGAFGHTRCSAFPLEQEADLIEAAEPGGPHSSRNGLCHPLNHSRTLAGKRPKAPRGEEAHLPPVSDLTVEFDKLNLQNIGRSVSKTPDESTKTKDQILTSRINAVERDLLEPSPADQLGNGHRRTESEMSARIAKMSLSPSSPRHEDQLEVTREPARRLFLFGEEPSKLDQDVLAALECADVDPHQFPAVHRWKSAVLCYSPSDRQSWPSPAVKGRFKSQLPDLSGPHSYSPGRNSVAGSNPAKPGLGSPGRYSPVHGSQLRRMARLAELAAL

[4] = target: T4, Δ2-63-ANKLE2-3XFLAG (human) (UniProt Q86XL3)
T4 sequence: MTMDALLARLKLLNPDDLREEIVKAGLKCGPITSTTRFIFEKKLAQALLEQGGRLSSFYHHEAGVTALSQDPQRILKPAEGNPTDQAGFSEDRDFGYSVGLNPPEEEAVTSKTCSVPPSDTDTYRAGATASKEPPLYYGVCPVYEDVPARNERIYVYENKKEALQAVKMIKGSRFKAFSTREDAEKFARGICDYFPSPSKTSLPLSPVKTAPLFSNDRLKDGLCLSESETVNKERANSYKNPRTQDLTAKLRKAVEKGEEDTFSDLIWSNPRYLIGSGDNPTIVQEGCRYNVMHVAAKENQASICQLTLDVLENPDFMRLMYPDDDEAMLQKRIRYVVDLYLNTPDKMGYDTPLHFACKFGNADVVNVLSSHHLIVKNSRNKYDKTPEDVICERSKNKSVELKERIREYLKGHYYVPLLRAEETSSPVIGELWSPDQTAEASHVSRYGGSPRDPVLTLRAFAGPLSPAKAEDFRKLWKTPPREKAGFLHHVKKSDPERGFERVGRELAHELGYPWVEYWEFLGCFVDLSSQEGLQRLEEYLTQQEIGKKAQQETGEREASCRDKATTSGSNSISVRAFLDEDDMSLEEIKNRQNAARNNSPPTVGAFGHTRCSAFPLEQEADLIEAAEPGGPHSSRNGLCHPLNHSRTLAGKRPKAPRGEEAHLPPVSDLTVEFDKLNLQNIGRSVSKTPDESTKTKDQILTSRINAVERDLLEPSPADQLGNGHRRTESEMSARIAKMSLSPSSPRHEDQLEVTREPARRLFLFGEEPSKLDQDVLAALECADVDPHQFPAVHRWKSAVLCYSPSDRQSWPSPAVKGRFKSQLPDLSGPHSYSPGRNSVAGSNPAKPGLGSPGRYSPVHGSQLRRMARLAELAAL

[5] = target: T5, full-length ANKLE2-3XFLAG (Ankyrin repeat and LEM domain-containing protein 2) (human), Q86XL3; conditions: remark: other sources report otherwise
T5 chain: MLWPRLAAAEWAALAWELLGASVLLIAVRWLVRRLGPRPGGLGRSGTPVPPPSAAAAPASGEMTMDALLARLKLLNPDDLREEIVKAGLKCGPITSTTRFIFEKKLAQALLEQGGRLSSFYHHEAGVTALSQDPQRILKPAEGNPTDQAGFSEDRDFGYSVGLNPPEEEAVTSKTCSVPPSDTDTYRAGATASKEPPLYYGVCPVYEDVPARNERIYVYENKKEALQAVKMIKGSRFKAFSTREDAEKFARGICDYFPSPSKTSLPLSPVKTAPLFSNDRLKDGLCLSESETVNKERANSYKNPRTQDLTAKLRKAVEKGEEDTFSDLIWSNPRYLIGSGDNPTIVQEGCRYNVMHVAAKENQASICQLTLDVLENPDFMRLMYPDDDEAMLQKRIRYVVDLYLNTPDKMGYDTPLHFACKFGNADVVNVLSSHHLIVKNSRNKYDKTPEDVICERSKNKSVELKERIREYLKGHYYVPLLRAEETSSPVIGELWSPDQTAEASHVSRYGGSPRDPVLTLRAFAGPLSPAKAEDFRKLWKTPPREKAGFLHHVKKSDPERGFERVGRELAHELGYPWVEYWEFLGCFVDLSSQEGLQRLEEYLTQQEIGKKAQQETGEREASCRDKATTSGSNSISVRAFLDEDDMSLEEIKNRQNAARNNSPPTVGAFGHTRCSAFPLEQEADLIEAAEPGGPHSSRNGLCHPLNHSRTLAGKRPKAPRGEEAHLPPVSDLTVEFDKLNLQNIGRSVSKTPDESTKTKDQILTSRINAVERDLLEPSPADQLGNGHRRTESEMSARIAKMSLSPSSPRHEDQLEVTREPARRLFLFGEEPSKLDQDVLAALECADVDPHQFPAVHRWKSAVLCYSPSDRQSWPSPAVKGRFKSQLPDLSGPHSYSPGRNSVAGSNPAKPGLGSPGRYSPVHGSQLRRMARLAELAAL

binding [1]: no binding | binding [2]: no binding | binding [3]: binds | binding [4]: binds
B1: barrier-to-autointegration factor (BAF) (protein, UniProt O75531 1-89)
chain: MTTSQKHRDFVAEPMGEKPVGSLAGIGEVLGKKLEERGFDKAYVVLGQFLVLKKDEDLFREWLKDTCGANAKQSRDCFGCLREWCDAFL

binding [5]: no binding
B2: barrier-to-autointegration factor (BAF), O75531 1-89 (protein)
chain: B1 chain
